In US20260151501A1, “ANTIBODY-DRUG CONJUGATE COMPRISING ANTI-CLAUDIN-18.2 ANTIBODY, AND THERAPEUTIC USE THEREOF FOR CANCER” (ABTIS CO., LTD., priority 2022, published 2026):

B1: Antibody-A: anti-claudin18.2 antibody with heavy chain of SEQ ID NO: 16 and light chain of SEQ ID NO: 17 (antibody)
heavy: QVQLVESGGGVVQPGRSLRLSCAASGFSLTTYGVHWVRQAPGKGLEWVAVIWAGGSTNYNSALMSRFTISRDNSKNTLYLQMNSLRAEDTAVYYCARAAYYGNGLDYWGQGTMVTVSS[… human IgG1 constant region …]
light: DIVMTQSPLSLPVTPGEPASISCKSSQTLLNSGNQKNYLTWYLQKPGQSPQLLIYWASTGESGVPDRFSGSGSGTDFTLKISRVEAEDVGVYYCQNAYFYPFTFGGGTKVEIKRTVAAPSVFIFPPSDEQLKSGTASVVCLLNNFYPREAKVQWKVDNALQSGNSQESVTEQDSKDSTYSLSSTLTLSKADYEKHKVYACEVTHQGLSSPVTKSFNRGEC
modifications: heavy chain of Claudin18.2 antibody; light chain of Claudin18.2 antibody
B2: ADC-A (conjugate)
heavy: B1 heavy
light: B1 light

What was measured:
[1] = target: T1, claudin18.2 protein (CLDN18.2) (Homo sapiens, UniProt P56856); assay: Cell-based ELISA binding to Claudin18.2 CHO-K1 cells; conditions: CLDN18.2-CHO-K1, OD at 450 nm
T1 construct: purchased CUSABIO TECHNOLOGY LLC CSB-MP005498HU (A5)
Method: (§1) OD value measurement through ELISA was performed by measuring the absorbance at 450 nm using a UV-Vis spectrometer.
(§2) A CHO-K1 cell line (hereinafter, referred to as “Claudin18.1 CHO-K1”) into which a gene (SEQ ID NO: 18) encoding the claudin18.1 protein (CLDN18.1) was transiently transfected, a CHO-K1 cell line (hereinafter, referred to as “Claudin18.2 CHO-K1”) into which a gene (SEQ ID NO: 19) encoding the claudin18.2 protein (CLDN18.2) was transiently transfected, and a CHO-K1 cell line (hereinafter, referred to as “MOCK CHO-K1”) into which only a NOCK vector (empty vector) was transiently transfected were prepared. At this time, a pcDNA3.1 vector was used for Claudin18.1 CHO-K1, and a pcDNA3.1 (+) vector was used for Claudin18.2 CHO-K1. […]
(§3) Transient transfection was performed according to the TransIT2020 manual, the transfected cells were plated on a 96-well plate for culture, and then treated with each of antibody-A and ADC-A. Thereafter, cell-based enzyme-linked immunosorbent assay (ELISA) was performed, and optical density (OD) values were measured.
(§4) The measured results were used for a regression analysis using GraphPad PRISM® 9.0 software to calculate EC50 and Bmax. The cell binding affinity of antibody-A and ADC-A was evaluated based on the calculated values.

MOCK CHO-K1 = assay: Cell-based ELISA binding to MOCK CHO-K1 cells; conditions: negative control, empty vector
Method: as §1, §2, §3, §4

SNU601 cell line = assay: Cell-based ELISA binding to SNU601 cells; conditions: SNU601 (CLDN18.2+)
Method: as §1
(§5) Four types of cell lines (MIA PaCa-2˜CLDN18.2, PATU8988S, parental MIA PaCa-2 (CLDN18.2-), and SNU601) were prepared. At this time, MIA PaCa-2˜CLDN18.2 and PATU8988S are CLDN18.2-positive pancreatic cancer cell lines. MIA PaCa-2 (CLDN18.2-) is a CLDN18.2-negative pancreatic cancer cell line. SNU601 is a CLDN18.2-positive gastric cancer cell line.
(§6) The prepared cell lines were cultured in DMEM containing 10% FBS and 1% penicillin/streptomycin (MIA PaCa-2˜CLDN18.2, MIA PaCa-2 (CLDN18.2-)), RPMI1640 containing 10% FBS and 1% penicillin/streptomycin (SNU601), and DMEM containing 5% FBS, 5% serum, 1% penicillin/streptomycin, and 2 mM L-glutamine (PATU8988S) in an incubator under the conditions of 37° C. and 5% CO2.
(§7) The prepared cell lines were plated on 96-well plates for culture, and then treated with each of antibody-A, ADC-A, antibody-B, and ADC-B. Thereafter, cell-based ELISA was performed, and OD values were measured.
(§8) The measured results were used for a regression analysis in GraphPad PRISM® 9.0 software to calculate EC50 and Bmax. The cell binding affinity of antibody-A, ADC-A, antibody-B, and ADC-B to each cell line was evaluated based on the calculated values.

[2] = system: MIA PaCa-2 (CLDN18.2-) cell line; assay: Cytotoxicity (CellTiter-Glo cell viability), MIA PaCa-2 (CLDN18.2-); type: cell-based
Method: (§9) To measure cell viability in cytotoxicity experiments, the measurement of luminescence using GloMax® Discover was used, and the measurement method was according to the equipment manual.
(§10) Four types of cell lines (MIA PaCa-2˜CLDN18.2, PATU8988S, parental MIA PaCa-2 (CLDN18.2-), SNU601, NUGC-4, and AGS) were prepared. At this time, MIA PaCa-2˜CLDN18.2 and PATU8988S are CLDN18.2-positive pancreatic cancer cell lines. MIA PaCa-2 (CLDN18.2-) is a CLDN18.2-negative pancreatic cancer cell line. SNU601 and NUGC-4 are CLDN18.2-positive gastric cancer cell lines. AGS is a CLDN18.2-negative gastric cancer cell line.
(§11) The prepared cell lines were cultured in DMEM containing 10% FBS and 1% penicillin/streptomycin (MIA PaCa-2˜CLDN18.2, MIA PaCa-2 (CLDN18.2-)), RPMI1640 containing 10% FBS and 1% penicillin/streptomycin (SNU601, NUGC-4, and AGS), and DMEM containing 5% FBS, 5% horse serum, 1% penicillin/streptomycin, and […] L-glutamine (PATU8988S) in an incubator under the conditions of 37° C. and 5% CO2. […]
(§12) Changes in cell viability according to treatment of each test substance were measured using the same method as the CellTiter-Glo manual.
(§13) The measured results were used for a regression analysis in GraphPad PRISM® 9.0 software to calculate IC50. The cytotoxicity of each test substance was evaluated based on the calculated values.

PATU8988S cell line = assay: Cell-based ELISA binding to PATU8988S cells; conditions: PATU8988S (CLDN18.2+)
Method: as §1, §5, §6, §7, §8

[3] = system: MIA PaCa-2˜CLDN18.2 cell line; assay: Cell-based ELISA binding to MIA PaCa-2˜CLDN18.2 cells
Method: as §1, §5, §6, §7, §8

[4] = system: MIA PaCa-2 (CLDN18.2-) cell line; assay: Cell-based ELISA binding to MIA PaCa-2 (CLDN18.2-) cells; conditions: CLDN18.2 negative cell line
Method: as §1, §5, §6, §7, §8

[5] = target: T2, claudin18.1 protein (CLDN18.1) (Homo sapiens, UniProt P56856); assay: Cell-based ELISA binding to Claudin18.1 CHO-K1 cells
T2 construct: expressed in transfected cells; host or cells: CHO-K1 (transient, pcDNA3.1 vector)
Method: as §1, §2, §3, §4

AGS cell line = assay: Cytotoxicity (CellTiter-Glo cell viability), AGS; type: cell-based
Method: as §9, §10, §11, §12, §13

Molecule | Bmax [1] | binding to MOCK CHO-K1 cell line (MOCK CHO-K1) | Bmax (SNU601 cell line) | IC50 ([2]; MIA PaCa-2 (CLDN18.2−), pancreatic cancer) | Bmax (PATU8988S cell line) | Bmax [3] | binding to parental MIA PaCa-2 [4] | binding to Claudin18.1 CHO-K1 cell line [5] | IC50 (AGS cell line; AGS (CLDN18.2−), gastric cancer) | toxicity in CLDN18.2-negative cell lines ([2]; up to the highest treatment concentration, MIA PaCa-2 (CLDN18.2-)) | toxicity in CLDN18.2-negative cell lines (AGS cell line; up to the highest treatment concentration, AGS)
B1 | 1.149 | did not bind | 3.002 | > 66.7 nM | 1.743 | 3.534 | none of the test substances bound | did not bind | > 66.7 nM |  | 
B2 |  | did not bind |  |  |  |  | none of the test substances bound | did not bind |  | almost no toxicity | almost no toxicity
